# According to the supplement of paper PMC3334620:
# Whole data set: some 33,000 sequences, median “E-score (-0.5 to 0.5)” near -0.016, cut for the highest 2% near 0.32. This is one part of the list.
# Molecular target: T1, Stp1 (UniProt B3LFK1)
# T1 sequence: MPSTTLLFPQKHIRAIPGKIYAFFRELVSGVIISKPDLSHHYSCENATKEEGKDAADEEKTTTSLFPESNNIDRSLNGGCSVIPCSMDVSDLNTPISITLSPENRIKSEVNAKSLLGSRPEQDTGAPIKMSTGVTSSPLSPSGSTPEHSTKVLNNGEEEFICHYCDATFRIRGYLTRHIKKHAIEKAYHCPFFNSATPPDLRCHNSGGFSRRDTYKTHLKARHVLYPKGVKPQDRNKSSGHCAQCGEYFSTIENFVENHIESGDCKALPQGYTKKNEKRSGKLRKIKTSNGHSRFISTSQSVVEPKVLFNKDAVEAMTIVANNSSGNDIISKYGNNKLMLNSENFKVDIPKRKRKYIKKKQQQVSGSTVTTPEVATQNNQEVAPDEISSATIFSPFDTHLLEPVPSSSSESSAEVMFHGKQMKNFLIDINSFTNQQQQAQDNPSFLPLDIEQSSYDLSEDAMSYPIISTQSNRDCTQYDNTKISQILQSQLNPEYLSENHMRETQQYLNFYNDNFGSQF
# Experiment: PBM E-score (8-mer binding enrichment) (E-score (-0.5 to 0.5)); higher = stronger / more preferred TF binding; most listed sequences are background and not binding sites
# Details: protein concentration: 200 nM; construct: GST-full length
# In short: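 GST-tagged yeast TFs (full-length or DNA-binding domain) were made by PURExpress in vitro transcription/translation and applied at about 100-200 nM to universal all-10-mer Agilent arrays. The arrays were made double-stranded by primer extension, on fresh or once-stripped slides. Bound protein was detected with fluorescent anti-GST, and scans were normalised with masliner. Each ungapped eight-base word, pooled with its reverse complement, received an E-score (modified Wilcoxon-Mann-Whitney statistic) from the Universal PBM Analysis Suite.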
row,Sequence,PBM E-score
1,CCTCTTGC,-0.0401
2,GAGGTTCC,-0.0811
3,CTGGGTTA,-0.215
4,CTGAGGTC,-0.201
5,CAAGTGAC,-0.066
6,TGCTTGAA,0.178
7,ACCCGGTA,-0.143
8,GAACGCCA,0.0737
9,GATCCATA,0.134
10,ACTGACTC,-0.0466
11,ACCAGTAA,0.129
12,ACATTACA,-0.00148
13,AGCAACGC,0.0899
14,AAAGGCCA,0.0115
15,ATAAGAAT,0.187
16,ATACGACA,0.068
17,AATTAACC,-0.0507
18,CTGGAAGC,-0.131
19,CATAGAGC,-0.156
20,AATGCACC,-0.0414
21,AAAGCTAT,0.0448
22,CTCACCTC,-0.0935
23,CTCCCCCA,-0.358
24,CCAGGGGC,-0.255
25,ATATGCGA,0.0474

row,Sequence,PBM E-score
1,ATCTGCTG,-0.116
2,GCGAACAC,-0.133
3,CCTTGCAG,-0.0551
4,TAACTCAA,0.0558
5,AGGCGCTC,0.137
6,GATGACAA,0.174
7,AAACTGTG,0.0483
8,GGCCTCAC,-0.00507
9,CATTGTGA,-0.103
10,AACGACGG,0.163
11,CCACATTA,-0.016
12,ACGGAGGA,-0.121
13,CGCGAGTA,0.0727
14,CCTCGGGC,-0.145
15,ACATTACG,0.175
16,ATGCTTGC,-0.24
17,CCCCACAA,-0.0971
18,CCGACAGA,0.00648
19,CGCCTCTA,0.154
20,CGAAGCTA,-0.118
21,GCAACAAA,0.224
22,CTTTGGGA,-0.148
23,CTGTACAG,0.0546
24,AGGATCCT,0.0962
25,GGAATACA,-0.0242

row,Sequence,PBM E-score
1,ACCAAGAG,-0.0461
2,CTAACAAG,0.0791
3,ACGTTCCT,0.0743
4,GAGCTCAA,-0.0649
5,CGGCTCTC,0.334
6,ATCGGGGA,-0.361
7,AGCGGATA,-0.031
8,CGGCGCCC,0.38
9,AGAGTGAA,0.0883
10,ACGCCCCT,-0.241
11,GGCTAGAA,0.124
12,ACGACCAC,-0.0293
13,AGAGGCGC,0.327
14,CGTTATAG,0.0844
15,ATGTGGTG,0.061
16,GCGGCTCA,0.461
17,AAACCGAT,0.00051
18,CAGCGGCC,-0.111
19,AACCCCCA,-0.277
20,TGAGAAAA,0.116
21,GCACTGCC,0.295
22,CATTTCTC,-0.0331
23,GAGGTTCA,-0.0614
24,ATAGGCAG,0.0667
25,CGTACTTC,0.112

row,Sequence,PBM E-score
1,ACATATCG,-0.0648
2,TACCCGAA,-0.0694
3,CGCACCTA,-0.0809
4,ACAACAGA,-0.0979
5,GCGCGTCC,-0.0448
6,CCTAGCCG,0.209
7,CTAAAAAC,0.00514
8,AGCCCAGA,-0.184
9,ATCACCCC,-0.153
10,AACTTATC,-0.101
11,GAGACTGC,-0.0601
12,AAGGGGCG,-0.0739
13,AAGACCAA,0.0637
14,GCGCTTCA,0.0695
15,CGTGCTTC,0.21
16,CGTTAAAG,0.0537
17,CCACGTAG,-0.231
18,AAACTATG,0.092
19,ACGTTAAA,0.0978
20,CCCTGCGC,-0.0515
21,ACTGATTA,-0.00806
22,TCGTGTCA,-0.0426
23,CAGCGCCA,0.0346
24,CAATTATC,0.0472
25,GTAGCGAA,-0.00393

row,Sequence,PBM E-score
1,CGCGTAAG,0.0543
2,CGACACCA,-0.139
3,ATTCGCCG,0.328
4,CAGGTTAG,-0.0241
5,CTTCGTTA,-0.136
6,ATATCTAG,0.131
7,CCGCTCCC,-0.129
8,AGACTCAC,-0.325
9,ATAAGTAT,0.0253
10,ATTGAGGG,-0.18
11,AGGGTTTA,-0.0642
12,TCTTTAAA,0.214
13,CGTCTAGA,0.0196
14,ACTTTATG,-0.0114
15,GCGTACGA,0.116
16,TAATAGGA,0.00841
17,CGTGCTCA,0.072
18,CCACGACG,0.0824
19,GATGCCAA,0.147
20,CGTCAGGC,-0.183
21,GAGGCCGA,-0.172
22,CTCCCACC,-0.172
23,CCTATCGA,-0.0175
24,CGGCCGCC,0.269
25,AATTGTGC,0.269

row,Sequence,PBM E-score
1,AGCCGTAG,0.392
2,ATTGGGGG,-0.336
3,ACATGTTC,-0.148
4,GCCAGTAA,-0.0247
5,ACAATAGA,0.119
6,AAGTGCGG,0.0699
7,CCATTGTC,-0.0473
8,ACTTCTAG,-0.0314
9,AAACATAG,-0.163
10,ATTCCAAA,0.0517
11,CGCACTCA,0.0725
12,CGATAGAG,-0.106
13,TGACCACA,-0.109
14,GGCCGGCA,0.2
15,CTACAACC,0.172
16,GGCGCAGA,0.271
17,ACATATGG,0.0758
18,ACGGTAGC,-0.0803
19,CTCGCTTC,-0.114
20,GGCCGGAA,-0.106
21,TAGCATAA,0.0006
22,CACAATAG,0.111
23,CAAACGTG,-0.0243
24,AACGTCGA,0.1
25,TAGGACTA,0.0602

row,Sequence,PBM E-score
1,AAATCTTG,-0.00868
2,CAGCAGTA,-0.0846
3,GCATTACC,-0.124
4,CAGCTCTC,-0.325
5,AGACGGAC,-0.055
6,GACCGTAA,-0.0965
7,AAGACGGG,0.0493
8,AATTTGGC,-0.0372
9,ACGAGCGC,-0.0541
10,ATGTGATA,-0.0523
11,AATTACGT,0.00761
12,ACTGGAAG,-0.2
13,GCCTAAGC,-0.0799
14,GAACGCCC,-0.00871
15,ATCCCCCA,-0.372
16,AAGGCCAC,0.101
17,AGGAGCGG,-0.029
18,CCACCAGC,-0.211
19,GCCGGGAC,-0.284
20,GACGCCGA,0.304
21,GAAACTGC,-0.0102
22,TAATCATA,0.0515
